The text below walks through data of the supplement of paper PMC10126150.

Sequences with one replicate were seen in a single cluster, so their values are uncertain.
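Also: ATP exposure 15 min at 22 °C before imaging.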

In this data set the test system is ATP. Description: switch fluorescence ratio, 500 uM ATP over buffer (Cy3 cluster intensity, sum of 5 cycles each) (fold (ratio)); higher = stronger signal-on switching upon ATP binding; sequences stand for … in TCGTCGGCAGCGTCAGATGTGTATAAGAGACAGTTTTTTTTTTTTTTTTTTTTTTTTT…TC. The conditions noted are these: aptamer strand: ATP DNA aptamer (quencher-CACCTGGGGGAGTATTGCGGAGGAAGG + anchor), 100 nM annealed; ATP concentration: 500 uM; one replicate. The essentials:
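Per cluster, summed Cy3 intensity from the target cycles was divided by that from the buffer cycles to give the fluorescence ratio, then averaged per switch-domain sequence. Clusters outside 100-1000 RFU were excluded. The Cy3-labelled switching-strand clusters, on a modified Illumina MiSeq flow-cell, were annealed to 100 nM quencher-labelled ATP aptamer and imaged in selection buffer, then after 15 min with 500 uM ATP at 22 °C, for five cycles with NaOH stripping and re-annealing between them.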
On to GGGGTATAAC, for which the switch fluorescence ratio was found to be 0.988. Turning to GCTAGGGTGA, the switch fluorescence ratio was 1.08. ATGTCCGGGA: the switch fluorescence ratio worked out at 1.06. In the case of CGTCGAGCGT, the switch fluorescence ratio is 1.03. For CATTGGGGGC, the switch fluorescence ratio is 1.01. Then GGAACGTTTG, with 0.99; and TCGGTTGTCA, with 0.963. Then AGGGTGGTAC, with 1.01; and GAAGTTGAGG, with 1.05; and TGGATCCCCG, with 0.976.

In the case of GTCTATGATT, the switch fluorescence ratio was determined as 0.979.

Take GCAGCGCCGC: the switch fluorescence ratio is 1.04. For the sequence ACGTCCCATC, the switch fluorescence ratio amounted to 1.11. As for CCTATTTCTA, the switch fluorescence ratio stood at 0.997.

With ACAGGCAGGG, the switch fluorescence ratio came to 0.991.

TATTTTGAGG: the switch fluorescence ratio was found to be 0.989. Then AGATTAGGCT, with 0.94; and AAACAGTTCA, with 1.01. Then TTTCGCCCGG, with 1.02; and TAGCCTAGC, with 1.01; and AAATAGGGA, with 0.979. Regarding GCTTGGATCA, the switch fluorescence ratio was found to be 1.04.

As for GTGATCGTGC, the switch fluorescence ratio was 0.969. CGATTTTAAT: the switch fluorescence ratio was determined as 0.988. On to GGGCCGGGTG, for which the switch fluorescence ratio came out at 0.99. On to CATCGTCCAC, for which the switch fluorescence ratio came out at 1.07. Regarding CTAATACGG, the switch fluorescence ratio turned out to be 0.975.

CACGGGCAAC: the switch fluorescence ratio is 1.18.

For the sequence GAGGTTTGGT, the switch fluorescence ratio was 0.982. With TCGTTAGTTA, the switch fluorescence ratio stood at 0.984.

TTGATGCCGT: the switch fluorescence ratio came out at 1.18.

CGTTCATCTG: the switch fluorescence ratio stood at 1.02. Take AGCAGCCGAA: the switch fluorescence ratio stood at 1.

For TCGTTGAAGG, the switch fluorescence ratio is 0.961.

As to GAAATTGGCG, the switch fluorescence ratio came out at 1.04. On to ATCCCAGGCC, for which the switch fluorescence ratio was 1.01. Consider AAAGACAGG, for which the switch fluorescence ratio is 0.998. As to GCACCTCATT, the switch fluorescence ratio came to 1.03.

As to AAGCTTGCTT, the switch fluorescence ratio worked out at 0.996. Then GTCTAGAGTG, with 0.995; and TGTTGATGAG, with 0.941.

Consider AGGAGTAACT, for which the switch fluorescence ratio worked out at 1. Regarding TGGGCTCGGG, the switch fluorescence ratio is 1.01. For the sequence TTCTGCATAG, the switch fluorescence ratio worked out at 3.94. For the sequence CCGATAGTCT, the switch fluorescence ratio was 1.05. Consider ACATTTCTGT, for which the switch fluorescence ratio amounted to 0.998. Consider TTACGGACA, for which the switch fluorescence ratio was found to be 1.43. With TTCCGCCAAA, the switch fluorescence ratio turned out to be 2.36. TAAGGCTGGT: the switch fluorescence ratio was found to be 1.02. As for CCTAATAGGT, the switch fluorescence ratio stood at 0.976. AACCAGGTGA: the switch fluorescence ratio came to 1.02. TTCCATAACG: the switch fluorescence ratio amounted to 0.968.

Regarding CAAACGTAAA, the switch fluorescence ratio was found to be 1.23. As for TTAGCGAATG, the switch fluorescence ratio was 1.02.

With TAGTTATAAG, the switch fluorescence ratio is 0.983. The value for TTTTTACACC was 1.11; that for TTTAAGCTGC was 1.01; that for TCAGAGAGTA was 0.982. Take CGGCTCAGTA: the switch fluorescence ratio came out at 0.936. On to TAAGTCGTCG, for which the switch fluorescence ratio amounted to 1.01. In the case of GGAAGTTTGG, the switch fluorescence ratio was 0.984. The value for TAACTTCCTC was 2.44; that for CTCAGATACT was 1.24. As for CGGATAATGC, the switch fluorescence ratio came out at 1.19. GCCGATGTAC: the switch fluorescence ratio was 1.53.

Regarding CCCCAGGTCC, the switch fluorescence ratio stood at 2.74.

Take TTGAATATTG: the switch fluorescence ratio was 0.969.
